Assay results published in PubChem BioAssay AID504332 (National Center for Advancing Translational Sciences (NCATS), 2011).
Hit rate of the full screen: of about 350,000 compounds, about 31,000 (8.9%) were called active. This list was built around the results that the source calls inconclusive (neither active nor inactive); the mix of calls is not that of the screen. Calls come from the whole dose curve; as a rule, active = well fitted inhibition curve with a large enough effect; inconclusive = small, poorly fitted or top-dose-only effect; inactive = no such curve, though single readings can be large or run the other way. A potency beside an inconclusive call is a rough fit, not a confirmed value.

target: Histone-lysine N-methyltransferase EHMT2 (Homo sapiens) (UniProt Q96KQ7); test: qHTS Assay for Inhibitors of Histone Lysine Methyltransferase G9a; conditions: G9a H3K9 monomethylation, AlphaScreen, 2 h; activity, negative = inhibition: at 59 µM (top of the series) unless noted; note: nearly all actives have a fitted effect of over 75% in size
Sequence of UniProt Q96KQ7 (Q96KQ7 whole entry, looked up): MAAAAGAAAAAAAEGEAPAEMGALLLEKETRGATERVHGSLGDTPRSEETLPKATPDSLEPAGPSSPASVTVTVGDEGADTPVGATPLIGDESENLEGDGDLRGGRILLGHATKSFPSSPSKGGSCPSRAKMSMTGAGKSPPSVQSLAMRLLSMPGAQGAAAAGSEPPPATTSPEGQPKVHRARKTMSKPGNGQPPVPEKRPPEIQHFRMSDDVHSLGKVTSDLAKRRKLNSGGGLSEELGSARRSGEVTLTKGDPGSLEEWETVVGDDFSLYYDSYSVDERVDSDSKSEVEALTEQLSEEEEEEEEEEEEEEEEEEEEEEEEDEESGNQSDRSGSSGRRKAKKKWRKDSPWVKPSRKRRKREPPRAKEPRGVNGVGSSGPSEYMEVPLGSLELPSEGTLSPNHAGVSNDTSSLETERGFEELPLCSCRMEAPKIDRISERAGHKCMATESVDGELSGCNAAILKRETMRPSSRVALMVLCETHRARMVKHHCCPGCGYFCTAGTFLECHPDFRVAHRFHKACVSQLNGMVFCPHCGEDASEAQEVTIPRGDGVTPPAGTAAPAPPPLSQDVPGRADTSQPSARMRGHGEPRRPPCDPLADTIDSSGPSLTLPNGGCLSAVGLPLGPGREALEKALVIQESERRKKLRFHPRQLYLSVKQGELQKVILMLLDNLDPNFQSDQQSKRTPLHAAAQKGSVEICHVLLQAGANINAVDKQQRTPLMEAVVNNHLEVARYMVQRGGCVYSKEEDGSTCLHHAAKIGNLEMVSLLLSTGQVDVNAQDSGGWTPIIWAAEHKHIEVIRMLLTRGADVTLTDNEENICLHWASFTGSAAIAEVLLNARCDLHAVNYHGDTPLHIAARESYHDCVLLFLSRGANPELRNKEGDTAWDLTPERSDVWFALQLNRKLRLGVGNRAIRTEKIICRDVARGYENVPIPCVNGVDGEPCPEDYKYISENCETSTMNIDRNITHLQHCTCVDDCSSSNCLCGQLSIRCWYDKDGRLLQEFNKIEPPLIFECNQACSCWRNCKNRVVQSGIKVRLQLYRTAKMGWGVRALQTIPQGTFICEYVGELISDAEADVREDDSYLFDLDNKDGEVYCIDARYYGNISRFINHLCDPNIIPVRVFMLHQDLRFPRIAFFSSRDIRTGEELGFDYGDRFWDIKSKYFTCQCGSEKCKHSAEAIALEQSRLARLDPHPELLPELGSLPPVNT
Summary of the method: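 Compounds were preincubated with 20 nM G9a for 15 min, after which biotinylated H3K9 peptide (500 nM) and SAM (20 uM) started a 2 h room-temperature reaction. Monomethylated product was quantified by antibody-based AlphaScreen chemiluminescence.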
% is set by controls: 0 for no effect and ±100 for the full control effect; potency is the fitted concentration of half-maximal effect; tags give direction and shape of the fitted curve.

Structure (SMILES) | Potency | activity, negative = inhibition
COc1ccc(CNC(=O)C2CCN(C(=O)N3CC(C)Oc4ccc(C)cc43)CC2)cc1 (centres undefined) | inconclusive: 17.8 µM [inhibitor, partial curve, poor fit] | –
CS(=O)(=O)Cc1ccc(C(=O)NC2CCCc3ccccc32)cc1 (centres undefined) | inactive | –
Cc1ccc(CN2C(=O)/C(=C3\SC(N4CCOCC4)=NC3=O)c3cc(Br)ccc32)cc1 | inconclusive: 89.1 µM [inhibitor, partial curve, poor fit] | –
O=C(CCS(=O)(=O)c1cc(Br)cc2c1N(C(=O)C1CC1)CC2)Nc1ccc(C(F)(F)F)cc1 | inactive | –
O=C1OC(c2ccc(F)cc2)=N/C1=C\c1ccc(Br)o1 | active: 50.1 µM | –
COCC(=O)Nc1ccc(OC)c(Cl)c1 | inactive | –
COc1cccc(CNC(=O)CN2C(=O)COc3ccc(S(=O)(=O)Nc4ccccc4)cc32)c1 | inactive | –
Cc1nn(CC(=O)N(C)C2CCS(=O)(=O)C2)c(C)c1[N+](=O)[O-] (centres undefined) | inconclusive: 44.7 µM [inhibitor, partial curve, poor fit] | –
CCOC(=O)C1CCN(S(=O)(=O)c2ccc(-c3nc4ccccc4s3)s2)CC1 | active: 35.5 µM | –
CCC1(C(=O)O)NC(c2cc(OC)ccc2O)C2C(=O)N(Cc3ccccc3)C(=O)C21 (centres undefined) | inconclusive: 1.12 µM [inhibitor, full curve, poor fit] | –
CCOC(=O)COc1ccc(Br)cc1/C=C\c1[nH]c(=O)[nH]c(=O)c1[N+](=O)[O-] | inconclusive: 7.08 µM [inhibitor, partial curve, poor fit] | –
Cc1cc(C)cc(NC(=O)C2CCC(CNS(=O)(=O)c3ccc4c(c3)C(C)(C)C(=O)N4C)CC2)c1 (centres undefined) | inactive | –
O=C1/C(=C/c2cccs2)SC(=S)N1c1cccc(O)c1 | inconclusive: 17.8 µM [inhibitor, full curve] | –
CCOCCCNC(=O)C(NC(=O)c1cnccn1)c1ccc(OC)cc1 (centres undefined) | inconclusive: 50.1 µM [inhibitor, partial curve] | –
CC(Nc1ccc2c(c1)OCCO2)C(=O)N1CCc2ccccc21 (centres undefined) | inconclusive: 39.8 µM [inhibitor, partial curve, poor fit] | –
O=C(CSc1cn(CCNC(=O)c2ccc3ccccc3c2)c2ccccc12)NCc1ccco1 | inconclusive: 35.5 µM [inhibitor, single point] | –
COc1ccc(Oc2cc(C(F)(F)F)nc(N(C)C)n2)cc1 | inactive | –
Cc1cc(C)nc(Nc2n[nH]c(-c3ccccc3Br)n2)n1 | inconclusive: 2 µM [inhibitor, partial curve, poor fit] | –
O=C(Oc1coc(CSc2ncccn2)cc1=O)c1cccs1 | inconclusive: 89.1 µM [inhibitor, single point] | –
COc1ccc(OCCCC(=O)Nc2ccc3c(c2)OCCO3)cc1 | – | inconclusive: -59.2% [inhibitor]
O=C(c1cccc(F)c1)N1CCC2(CCN(Cc3cc(C(F)(F)F)cc(C(F)(F)F)c3)CC2)CC1 | inconclusive: 3.98 µM [inhibitor, single point] | –
COc1ccc(OC)c(C(=O)CN2CCN(S(=O)(=O)c3ccc(Br)cc3)CC2)c1 | inconclusive: 2.24 µM [inhibitor, partial curve, poor fit] | –
CCCCCCCC(=O)NNC(=O)c1ccc(F)cc1 | – | inactive: 37% [at 0.501 µM]

Structure (SMILES) | Potency | activity, negative = inhibition
Cc1cc(C(=O)OCC(=O)Nc2ccc(F)cc2[N+](=O)[O-])c2ccccc2n1 | inactive | –
CCOC(=O)C(NC(C)=O)C(OC(C)=O)c1cccc([N+](=O)[O-])c1 (centres undefined) | – | inactive: 35.5% [at 0.501 µM]
Cc1cc(C)n(CCc2nc(-c3ccc(C)o3)cs2)n1 | inconclusive: 3.55 µM [inhibitor, single point] | –
COc1ccc(NC(=O)CSc2nnnn2C2CC3C=CC2C3)cc1 (centres undefined) | inconclusive: 89.1 µM [inhibitor, single point] | –
CC1CC(C)CN(C(=O)c2cccc(S(=O)(=O)N(C)c3ccccc3)c2)C1 (centres undefined) | inconclusive: 79.4 µM [inhibitor, partial curve, poor fit] | –
Cc1cccc(N2CCN(CCCNC(=O)c3nnc(Cc4c(F)cccc4Cl)o3)CC2C)c1 (centres undefined) | inactive | –
COc1ccc(C(=O)Nc2ccccc2C(=O)Nc2ccncc2)cc1 | active: 44.7 µM | –
Cc1ccc(S(=O)(=O)C(C#N)c2nc3ccccc3nc2N2CCN(C)CC2)cc1 (centres undefined) | inconclusive: 50.1 µM [inhibitor, partial curve, poor fit] | –
COc1cc(CC(=O)O)ccc1O | – | inactive: -6.49% [at 12.7 µM]
CC(C)CN(C(=O)COC(=O)c1ccccc1NCc1ccco1)c1c(N)n(Cc2ccccc2)c(=O)[nH]c1=O | inactive | –
COc1ccc(C2=C(C)C(=O)N(Cc3ccc(C(=O)Nc4cc(C)ccc4C)cc3)S2(=O)=O)cc1 | inactive | –
O=C(Cn1cnc2ccccc2c1=O)NC1CCCc2ccccc21 (centres undefined) | inconclusive: 3.55 µM [inhibitor, partial curve, poor fit] | –
O=C(c1ccc2c(c1)OCO2)N(CC1CCCO1)C1(C(=O)NC2CCCCC2)CCCCC1 (centres undefined) | inconclusive: 89.1 µM [inhibitor, single point] | –
O=c1c(C=NCc2cccnc2)c(C(F)(F)F)[nH]n1-c1nc2ccccc2s1 | inconclusive: 28.2 µM [inhibitor, full curve] | –
CC1(C)CC(=O)c2sc(NS(=O)(=O)c3cc(Cl)ccc3Cl)nc2C1 | inconclusive: 89.1 µM [inhibitor, single point] | –
O=C(NNc1cc(Cl)cc(Cl)c1)c1c(F)cccc1Cl | – | inconclusive: -83.2% [inhibitor]
CC(=O)c1c(C)[nH]c(C(=O)OCC(=O)Nc2ccc(C)cc2[N+](=O)[O-])c1C | inconclusive: 2.51 µM [inhibitor, partial curve, poor fit] | –
O=S(=O)(NCc1ccco1)c1ccccc1Br | – | inconclusive: -84.2% [inhibitor]
Cc1ccc2[nH]c(=O)c3cc(C(=O)N(C)Cc4ccco4)sc3c2c1 | inconclusive: 1 µM [inhibitor, full curve, poor fit] | –
CN(C1=C(N2CCOCC2)C(=O)c2ccccc2C1=O)c1ccccc1 | active: 10 µM | –
COc1ccc(N=C2S/C(=C\c3ccco3)C(=O)N2CC(C)C)cc1 | active: 35.5 µM | –
Cc1ccc(/C=C/C(=O)Nc2sc3c(c2C#N)CCCC3)o1 | inconclusive: 25.1 µM [inhibitor, single point] | –
COc1ccc(-n2cc(-c3ccc(OC)c(OC)c3)[nH]c2=S)cc1 | active: 0.891 µM | –

Structure (SMILES) | Potency | activity, negative = inhibition
CCN(CC)S(=O)(=O)c1ccc2c(c1)N(CC(=O)Nc1ccc(C)cc1C)C(=O)C1CCCN21 (centres undefined) | active: 14.1 µM | –
COc1ccccc1N1CCN(c2nc3ccc(C)cc3n3nnnc23)CC1 | inconclusive: 3.98 µM [inhibitor, partial curve, poor fit] | –
COc1ccc(CNS(=O)(=O)c2cc(-c3cc(C)no3)ccc2C)cc1OC | inactive | –
CNS(=O)(=O)c1ccc2nc(NC(=O)/C=C/c3ccco3)sc2c1 | inconclusive: 79.4 µM [inhibitor, single point] | –
COc1cc(NC(=O)Cn2nc(-c3ccc(C)c(C)c3)ccc2=O)cc(OC)c1 | inactive | –
COc1ccc(C2=CC(c3cccc(C)c3)n3nnnc3N2)cc1 (centres undefined) | inconclusive: 35.5 µM [inhibitor, single point] | –
CCNc1ccccc1CP(=O)(c1ccccc1)c1ccccc1O (centres undefined) | – | inconclusive: -81.8% [inhibitor] [at 2.33 µM]
CCCCCCCCCCCCCCCC(=O)C1=C(O)C(CO)OC1=O (centres undefined) | active: 10 µM | –
O=C(CN1C(=O)c2ccccc2C1=O)N1CCN=C1c1ccccc1 | inactive | –
O=C(Cc1csc(-c2ccccc2)n1)NCc1ccccc1F | inactive | –
C#CCOCCOCCOCCNc1nc(N2CCN(C(=O)[C@H](C(C)C)n3cc(CCO)nn3)CC2)nc(N2CCN(C(=O)[C@H]([C@@H](C)CC)n3cc(CCCN=C(N)N)nn3)CC2)n1 | active: 39.8 µM | –
CCc1c(O)nc(SCC(=O)Nc2ccc3c(c2)CCC3)[nH]c1=O | inactive | –
O=C(COc1cccc([N+](=O)[O-])c1)N/N=C/c1ccco1 | inconclusive: 79.4 µM [inhibitor, partial curve, poor fit] | –
COc1ccc(OC)c(NC(=O)CN2C(=O)C(C)N(c3ccc(C)cc3)C2=O)c1 (centres undefined) | inactive | –
COc1ccccc1CNC(=O)c1ccc(-c2nc(CS(=O)c3ccccc3)c(C)o2)cc1 (centres undefined) | inconclusive: 10 µM [inhibitor, partial curve] | –
COc1cccc(/C(O)=C2/C(=O)C(=O)N(CCN3CCOCC3)C2c2cccnc2)c1 (centres undefined) | inconclusive: 35.5 µM [inhibitor, single point] | –
O=C(Cc1ccc(NC(=O)N2CCCCc3ccccc32)cc1)NCc1ccccc1 | inactive | –
CCc1cc2c(cc3c(=O)n(CC(=O)N4CCCCC4)ncn32)s1 | inactive | –
Cc1oc(-c2ccccc2Cl)nc1CS(=O)CC(=O)NCCc1ccccc1 (centres undefined) | inconclusive: 50.1 µM [inhibitor, partial curve, poor fit] | –
CN(c1ccc(C(=O)N2CCOCC2)cc1[N+](=O)[O-])C1CCCCC1 | – | inconclusive: -55.2% [inhibitor]
CCC1=[N+](C)c2cccc3cccc(c23)N1C | inconclusive: 25.1 µM [inhibitor, single point] | –
Cc1cc(CNC(=O)Cn2nc(C)c([N+](=O)[O-])c2C)c2ccccc2n1 | active: 35.5 µM | –
Cc1cccc(NC(=O)c2ccc(N3CCCCC3)c([N+](=O)[O-])c2)n1 | – | inconclusive: -71.9% [inhibitor]
